# According to the supplement of paper PMC3334620:
# Over roughly 33,000 sequences, “E-score (-0.5 to 0.5)” has its median near -0.011; the highest 2% begin near 0.28. Some of the results follow.
# Target: T1, Gcr1 (UniProt P07261)
# T1 sequence: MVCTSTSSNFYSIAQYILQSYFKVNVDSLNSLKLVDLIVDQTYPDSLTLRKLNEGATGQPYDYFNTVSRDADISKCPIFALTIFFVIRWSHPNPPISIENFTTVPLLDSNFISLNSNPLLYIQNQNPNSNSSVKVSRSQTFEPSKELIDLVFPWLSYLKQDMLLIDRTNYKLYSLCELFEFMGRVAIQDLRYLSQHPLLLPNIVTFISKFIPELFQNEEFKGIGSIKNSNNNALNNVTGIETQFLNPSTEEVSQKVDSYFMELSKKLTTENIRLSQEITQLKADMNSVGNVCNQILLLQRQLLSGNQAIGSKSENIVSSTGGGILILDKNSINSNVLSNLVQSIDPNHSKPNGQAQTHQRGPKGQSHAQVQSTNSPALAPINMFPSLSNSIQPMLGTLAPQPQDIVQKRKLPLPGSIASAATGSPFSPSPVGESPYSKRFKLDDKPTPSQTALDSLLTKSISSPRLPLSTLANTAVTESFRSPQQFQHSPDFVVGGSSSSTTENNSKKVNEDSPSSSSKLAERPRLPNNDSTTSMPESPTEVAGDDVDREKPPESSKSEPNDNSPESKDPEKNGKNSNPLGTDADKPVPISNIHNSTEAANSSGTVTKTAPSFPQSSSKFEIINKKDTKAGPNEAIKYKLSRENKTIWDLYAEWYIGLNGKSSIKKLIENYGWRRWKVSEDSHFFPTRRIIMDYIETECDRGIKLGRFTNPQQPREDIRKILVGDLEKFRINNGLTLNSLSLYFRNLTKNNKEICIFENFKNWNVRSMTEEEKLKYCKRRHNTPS
# Experiment: PBM E-score (8-mer binding enrichment) (E-score (-0.5 to 0.5)); higher = stronger / more preferred TF binding; most listed sequences are background and not binding sites
# Settings: protein concentration: 100 nM; construct: GST-full length
# How it was run: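 For each ungapped eight-base word taken together with its reverse complement, the Universal PBM Analysis Suite assigned an E-score. Binding data came from GST-tagged yeast transcription factors, applied at about 100-200 nM, on universal all-10-mer Agilent arrays made double-stranded by primer extension. Fluorescent anti-GST marked bound protein, and scans were normalised with masliner.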
row,Sequence,PBM E-score
1,AAACAGGA,0.363
2,GCCAACGC,-0.0929
3,GATCAATC,-0.0368
4,CTAACCAG,0.0668
5,CAAATATG,0.0833
6,AAGACGAA,0.131
7,ATCTCTCC,-0.112
8,TAATGCAA,-0.0298
9,CTACTAGA,0.0802
10,CCCTTTAG,-0.172
11,AGTTGGAG,0.184
12,CCACTAAA,0.314
13,ACAACGCA,-0.169
14,ACCCATTG,-0.0358
15,ACGTTGCC,0.24
16,GCAACCAC,0.267
17,GAACTGAC,-0.11
18,CTGGTCTC,0.0542
19,GATTGGAC,0.0723
20,ATCCGTCG,-0.0346
21,TAATCCCA,0.133
22,CCTAGAAC,0.00071
23,CCTATCTA,-0.0661
24,ATGGAATA,0.0994
25,AAAACCAG,0.146

row,Sequence,PBM E-score
1,AATACCCC,-0.119
2,CGCCTCAG,-0.185
3,ATTTGATC,0.0352
4,CAACGCGC,0.122
5,ACGGTGAT,-0.134
6,AGCAACAA,0.0591
7,ACAGAGCA,0.0958
8,ACTCATTA,0.0625
9,GTCCTCGA,-0.0784
10,ATATTGCG,0.0339
11,AATATCTC,-0.0376
12,ACTAGGCA,0.0179
13,GTCCGGAA,0.106
14,TGCAGTAA,0.00947
15,ACCGTGGG,-0.00593
16,CATCGTGG,0.0334
17,ATTTTGCC,-0.00703
18,ATTGGGTG,0.085
19,ACAGAGAT,0.0182
20,CACGCACG,0.0016
21,AATGTAGC,0.0261
22,ACATACTC,-0.169
23,ACGGCAGC,0.101
24,CGTAGTGA,-0.043
25,AGATAAAT,-0.077

row,Sequence,PBM E-score
1,GACACCAC,0.169
2,GTTTCAAA,0.0493
3,AGGAGGGA,-0.139
4,AGGTCGCA,-0.0983
5,CAGCGATC,-0.151
6,TGATAACA,-0.147
7,GCAGCTCA,0.108
8,GCAATCTA,-0.11
9,ACTGCGTG,0.153
10,TAAAGAGA,0.0201
11,CAGGCGGA,0.0323
12,GTCACTCA,0.0683
13,ATTTGCAA,0.155
14,AGTTCGGA,0.0698
15,TGTCTTAA,-0.0143
16,ATCACTAC,0.0639
17,AACACCGC,0.0497
18,AAAATCAA,0.0187
19,CCACCTGA,0.088
20,ACGGCCTG,-0.127
21,GGAACGCC,0.152
22,ACGGGAAG,0.112
23,GTTCCTTA,0.0517
24,CAGAGTAA,-0.0736
25,CAGAGATA,0.0172

row,Sequence,PBM E-score
1,CTGGCTCC,0.26
2,AGAGCCTC,-0.147
3,CGGCTACC,0.0369
4,AATGCGTC,0.0832
5,GCTAGTAC,-0.0272
6,CCAGGAAG,0.166
7,CCTCATAG,-0.119
8,AACTGTAT,-0.0922
9,ACTAGCCC,0.0558
10,AGAGGCAG,0.0897
11,AGCACGTG,-0.196
12,AGGGAGTG,-0.121
13,AATAGTGA,0.0209
14,TCATCGCA,-0.0968
15,AGAATGGC,-0.0738
16,ACGGTAAG,-0.0708
17,GCGGGTAC,0.00167
18,ACAACACA,-0.0268
19,CAACCGAA,0.067
20,AACGAAAT,0.102
21,AAGGGACC,-0.286
22,TATCCTCA,-0.0338
23,AGGCAACT,0.0157
24,AAGAAAGC,-0.148
25,AACTCCGT,0.0358

row,Sequence,PBM E-score
1,AATGGGGG,-0.0754
2,AGTTCGAT,-0.00863
3,ACAGCCAT,-0.277
4,GAGAATAA,-0.0609
5,CGCAGGTC,-0.104
6,CCCCGTGA,-0.0435
7,AAGAAATC,0.0702
8,AACGGGCG,-0.0222
9,AATACATA,0.176
10,GGTTACAA,0.0617
11,AACCTGCA,-0.0327
12,AAAGCACA,-0.0802
13,GGATAAAC,-0.102
14,AAACTAGC,0.0289
15,AGTGCCAA,0.0317
16,GGATGGCC,-0.306
17,CTGAGACC,0.00107
18,ACTGGCAC,0.0733
19,GATCTCAA,-0.152
20,AGCGAGTA,0.0974
21,ATACCTAA,0.14
22,ATACGCCG,0.24
23,TATAAATA,0.131
24,GGGTTTAC,-0.144
25,CATTAGAC,0.0983

row,Sequence,PBM E-score
1,AGAGCGAA,-0.308
2,GCTCATGA,-0.153
3,GAGGGGTA,0.00675
4,CGTTCTTA,0.13
5,CAATGCCA,0.031
6,ACATCGCC,-0.0573
7,AACCATTC,-0.0583
8,CAAATAAC,0.132
9,AATCAACT,-0.0954
10,TAGAAGAA,0.352
11,CGCCATAC,0.127
12,AGTTTTAT,0.112
13,CCGAAGTA,0.0569
14,AAAGGACG,0.025
15,AAAAATTG,0.116
16,CTGGAGAC,0.164
17,TGACTGCA,-0.205
18,GGGGCGAC,0.118
19,CGTACGCA,-0.176
20,TCCTGCAA,-0.0959
21,TGGCATAA,-0.0219
22,CGACATAG,0.00154
23,TGGCCTAA,-0.279
24,AACCGTCT,-0.0995
25,ATCATCCA,0.0347

row,Sequence,PBM E-score
1,CATGAGAC,-0.288
2,CTCTGAAG,-0.125
3,CAAGACCG,-0.196
4,ACTGCCTC,-0.0123
5,GGCGCATA,-0.0105
6,ATATAAAG,0.114
7,TGCATCAA,0.129
8,GTGAGCTA,-0.175
9,CCCACTAG,-0.0356
10,TATGTACA,-0.126
11,GTCAAAAC,-0.167
12,GATAGTAA,-0.197
13,AGGCCCGC,-0.211
14,AAAGCCAC,0.0178
15,AAAACGTC,0.0144
16,CACATCGC,-0.0721
17,AGGGGCCA,0.011
18,CGATGGCC,-0.152
19,CTCGACTA,-0.0388
20,AGTAATAG,0.188
21,TCAGATGA,0.0861
22,GTAGGTGA,-0.217
